53 compounds from PubChem BioAssay AID1347073 (National Center for Advancing Translational Sciences (NCATS), 2019) can be followed below.

Out of some 45,000 compounds screened, about 200 (0.44%) were called active. Roughly 7% stayed inconclusive and do not appear here. Calls follow the shape of the dose curve; as a rule, active = well fitted activation curve with a large enough effect; inconclusive = small, poorly fitted or top-dose-only effect; inactive = no such curve, though single readings can be large or run the other way. Some of the results follow.

The test in a line: qHTS of TDP-43 Inhibitors: NCGC Sytravon Library Screen. Also: 0% is about no effect; nearly all actives have a fitted effect of over 55% in size. As to conditions: yeast TDP-43 toxicity rescue, BacTiter-Glo growth, 24 h; series mostly up to 46.1 µM; growth rescue (activation): at the top concentration. A digest of the protocol:
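TDP-43-expressing yeast, pregrown in raffinose, seeded at OD600 0.02 in galactose medium with compound for 24 hr at 30 deg C. Growth read by BacTiter-Glo luminescence, so rescue of toxicity appears as activation.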
(In qHTS, concentration-response curves come from the screen itself.)
In the case of `CCOC(=O)N1CCC(N(CCN(C)C)C(=S)Nc2cc(C)cc(C)c2)CC1`, the “growth rescue (activation)” value was inactive: -50.8%.

For `CCOC(=O)C1=C(C)N(C)C(=O)NC1c1cc2c(cc1[N+](=O)[O-])OCO2` (stereo not drawn), the “growth rescue (activation)” value was inactive: 7.01%.

As for `CC(C)N1CCC1(C)C(=O)Nc1nc2ccccc2[nH]1` (stereo not drawn), the “growth rescue (activation)” value was inactive: 15.9%.

With `O=C(NCc1cccc2[nH]ccc12)C1CCC(=O)N(CCc2ccc(Cl)cc2)C1` (stereo not drawn), the “growth rescue (activation)” value was inactive: 2.47%.

Turning to `Cc1ccc(NC(=O)COC(=O)CCC2CCCC2)cc1S(=O)(=O)N1CCOCC1`, the “growth rescue (activation)” value was inactive: 6.39%.

On to `COc1ccc(OC)c(NC(=O)COC(=O)CCCN=C2NS(=O)(=O)c3ccccc32)c1`, for which the “growth rescue (activation)” value is inactive: 7.37%.

With `CC1=C/C(=C\C=C(C#N)C#N)N(C)c2ccccc21`, the “growth rescue (activation)” value is inactive: 3.94%.

With `N#CC1=C(N)NC(=S)C(C(N)=O)C1c1ccccc1F` (stereo not drawn), the “growth rescue (activation)” value is inactive: -26.2%.

For the compound `Cc1ccc(NC(=O)c2ccc(Cl)cc2Cl)c(C(=O)c2ccccc2)c1`, the “growth rescue (activation)” value was inactive: 19.7%.

Turning to `Cc1cc(=O)[nH]c(N/N=C/c2ccc(Cl)c([N+](=O)[O-])c2)n1`, the “growth rescue (activation)” value was inactive: 5.36%.

`O=C(C[n+]1ccc(/C=C/c2ccccc2)cc1)c1ccc2c(c1)OCCO2`: the “growth rescue (activation)” value was inactive: 14.5%.

Consider `Cc1ccc(-c2nnn(CC(=O)NCc3ccccc3)n2)c(-n2cnnn2)c1`, for which the “growth rescue (activation)” value was inactive: -6.95%.

For the compound `O=C(O)C1CN(C(=O)c2ccccc2)c2cc(Cl)ccc2O1` (stereo not drawn), the “growth rescue (activation)” value was inactive: 9.88%.

As for `C=CCn1c(C)cc(C2=NNC(=NC(C)(C)C)SC2)c1C`, the “growth rescue (activation)” value was inactive: 2.49%.

For `COc1ccc(CNC(=O)Cn2cc(C(F)(F)F)ccc2=O)cc1`, the “growth rescue (activation)” value was inactive: 9.55%.

Consider `CC(C)CNC(=S)N1CCN(c2nc(-c3ccc(Cl)cc3)cs2)CC1`, for which the “growth rescue (activation)” value was inactive: 24.1%.

Turning to `CC(=O)n1cc(Nc2ccc([N+](=O)[O-])cc2)c2ccccc21`, the “growth rescue (activation)” value was inactive: -23.3%.

As to `O=C(CSc1nnc(-c2cccnc2)o1)Nc1ccc(Cl)cc1`, the “growth rescue (activation)” value is inactive: 13.5%.

Consider `O=C(Nc1ccnn1C1CCN(C(=O)c2ccc(Cl)c(F)c2)CC1)C1CCOC1` (stereo not drawn), for which the “growth rescue (activation)” value was inactive: 22.4%.

For `COc1ccc([N+](=O)[O-])cc1NS(=O)(=O)c1cccc(C(=O)NCCCN2CCCC2=O)c1`, the “growth rescue (activation)” value was inactive: 15.5%.

On to `CCOC(=O)c1c(CN(C)C)n(-c2ccccc2)c2cc(Br)c(OC)cc12`, for which the “growth rescue (activation)” value was inactive: 6.48%.

In the case of `O=C1c2ccccc2CN1CCNS(=O)(=O)c1ccc2ccccc2c1`, the “growth rescue (activation)” value was inactive: 19.5%.

For the compound `CCN1CCCC1CN(Cc1cc2cc(OC)ccc2[nH]c1=O)C(=O)NCc1ccccc1` (stereo not drawn), the “growth rescue (activation)” value was inactive: 11.2%.

As for `CN(C)c1ccc(C2/C(=C(/O)c3ccccc3)C(=O)C(=O)N2CCCC(=O)O)cc1` (stereo not drawn), the “growth rescue (activation)” value was inactive: -0.407%.

Consider `COCCCNC(=O)c1ccc2c(c1)nc(C)n2-c1cccc(C)c1`, for which the “growth rescue (activation)” value is inactive: 10%.

In the case of `Cc1ccc(CNC(=O)c2ccc(NS(=O)(=O)c3c(C)noc3C)cc2)cc1`, the “growth rescue (activation)” value is inactive: 28.8%.

Regarding `COC(CNC(=O)c1ccc2c(c1)ncn2-c1ccc(F)cc1F)OC`, the “growth rescue (activation)” value is inactive: -4.43%.

For `O=C(O)Cc1ccc(C(=O)c2ccc(Cl)cc2Cl)s1`, the “growth rescue (activation)” value is inactive: 8.07%.

Regarding `Cc1noc(C)c1CSc1ccccc1C(=O)OC(C)C(N)=O` (stereo not drawn), the “growth rescue (activation)” value is inactive: 7.01%.

`O=c1cc(N2CCCCC2)c2ccccc2o1`: the “growth rescue (activation)” value is inactive: -2.07%.

As to `CC(C)Oc1ccccc1OCCCCn1cnc2ccccc2c1=O`, the “growth rescue (activation)” value is inactive: -1.31%.

Take `CCc1nc2ccc(C(=O)NCCc3ccccn3)cn2c1N(CCC(C)C)CCN(C)C`: the “growth rescue (activation)” value was inactive: 14.1%.

For the compound `O=C(Nc1ccc2c(c1)C(=O)OC2)c1ccc(Cl)cc1Cl`, the “growth rescue (activation)” value was inactive: -3.87%.

On to `CC(=O)Nc1ccc(NC(=O)CCOc2ccccc2C)cc1`, for which the “growth rescue (activation)” value was inactive: 13.9%.

On to `CCOC(=O)C1CCCN(C(=O)c2ccc3ccccc3c2)CC1` (stereo not drawn), for which the “growth rescue (activation)” value was inactive: 31%.

As to `Cc1cc(C)cc(C(O)c2ncc(-c3ccc(Cl)cc3)[nH]2)c1` (stereo not drawn), the “growth rescue (activation)” value was inactive: 13.8%.

Regarding `CC(=O)/C(N=Nc1c(C)n(C)n(-c2ccccc2)c1=O)=C(\C)O`, the “growth rescue (activation)” value is inactive: 6.81%.

Consider `Cc1ccc(SCC(=O)NC(=O)NCc2ccccc2)c(C)c1`, for which the “growth rescue (activation)” value is inactive: 6.93%.

Take `COc1ccc(/C=C/C(=O)NC(=S)N2CCN(c3ccccc3OC)CC2)cc1`: the “growth rescue (activation)” value was inactive: -2.91%.

In the case of `NNC(=O)C1=NOC(CNc2ncc(C(F)(F)F)cc2Cl)C1` (stereo not drawn), the “growth rescue (activation)” value was inactive: 19.7%.

Turning to `CC1(C(=O)Nc2cnc3ccccc3c2)CCN1Cc1ccc(OC(F)(F)F)cc1` (stereo not drawn), the “growth rescue (activation)” value is inactive: 26.5%.

Turning to `CN1C(=O)CC(N2CCN(CC(=O)N3CCCC3)CC2)C1=O` (stereo not drawn), the “growth rescue (activation)” value was inactive: 5.87%.

As for `Cc1ccc(CN2CCN(/N=C/c3cccnc3)CC2)c(C)c1`, the “growth rescue (activation)” value was inactive: 3.69%.

Consider `COc1ccc(S(=O)(=O)/N=C2\C=C(Nc3ccc(O)cc3)C(=O)c3ccccc32)cc1`, for which the “growth rescue (activation)” value was inactive: -3.15%.

`Cc1cc2nc(-c3ccc(SCc4ccccn4)nc3)[nH]c2cc1C`: the “growth rescue (activation)” value is inactive: -23.9%.

For the compound `O=C(O)CCCCNS(=O)(=O)/C=C/c1ccccc1`, the “growth rescue (activation)” value was inactive: 11%.

For the compound `Cc1ccc(C(=O)CC(c2cccs2)S(=O)(=O)c2ccc(C)cc2)cc1` (stereo not drawn), the “growth rescue (activation)” value is inactive: 7.94%.

For the compound `COC(/C=C/Nc1ccc(Cl)cc1)=C(C#N)C#N`, the “growth rescue (activation)” value is inactive: 1.01%.

Regarding `O=C(Nc1ccccc1F)c1ccc2sc([C@@H]3O[C@H](CO)[C@H](O)[C@H](O)[C@H]3O)nc2c1`, the “growth rescue (activation)” value is inactive: -5.89%.

In the case of `COCCCn1c(-c2ccc(S(=O)(=O)N3CCOCC3)cc2)csc1=Nc1ccccc1`, the “growth rescue (activation)” value was inactive: 0.815%.

Regarding `CCOP(=O)(OCC)C(Nc1ccccn1)c1ccc(F)cc1` (stereo not drawn), the “growth rescue (activation)” value was inactive: 21.5%.

Turning to `Cc1c(C=O)c2ccccn2c1C(=O)c1cccc([N+](=O)[O-])c1`, the “growth rescue (activation)” value was inactive: 33.6%.

Take `O=C(CN(C(=O)CCC(=O)Nc1nccs1)c1ccc2c(c1)OCO2)NCc1ccc(F)cc1`: the “growth rescue (activation)” value is inactive: 6.95%.
